# Hit rate of the full screen: of about 270,000 compounds, about 620 (0.23%) were called active. Inconclusive results, whose numbers are uncertain, are shown with a selection of clear calls. The call rests on the fitted dose curve; in most records, active means well fitted inhibition curve with a large enough effect in the polarisation, with a control signal flat (not every such curve was filed as active); inconclusive means small, poorly fitted or top-dose-only effect, or effect the other way, or a change in a side signal; inactive means no such curve, though single readings can be large or run the other way; the % refers to the polarisation. A potency beside an inconclusive call is a rough fit, not a confirmed value. A note “side channel” means that the fit belongs to a control or component signal, not to the main read-out.
# Target: Menin (Homo sapiens) (UniProt O00255)
# Chain of UniProt O00255 (O00255 whole entry, looked up): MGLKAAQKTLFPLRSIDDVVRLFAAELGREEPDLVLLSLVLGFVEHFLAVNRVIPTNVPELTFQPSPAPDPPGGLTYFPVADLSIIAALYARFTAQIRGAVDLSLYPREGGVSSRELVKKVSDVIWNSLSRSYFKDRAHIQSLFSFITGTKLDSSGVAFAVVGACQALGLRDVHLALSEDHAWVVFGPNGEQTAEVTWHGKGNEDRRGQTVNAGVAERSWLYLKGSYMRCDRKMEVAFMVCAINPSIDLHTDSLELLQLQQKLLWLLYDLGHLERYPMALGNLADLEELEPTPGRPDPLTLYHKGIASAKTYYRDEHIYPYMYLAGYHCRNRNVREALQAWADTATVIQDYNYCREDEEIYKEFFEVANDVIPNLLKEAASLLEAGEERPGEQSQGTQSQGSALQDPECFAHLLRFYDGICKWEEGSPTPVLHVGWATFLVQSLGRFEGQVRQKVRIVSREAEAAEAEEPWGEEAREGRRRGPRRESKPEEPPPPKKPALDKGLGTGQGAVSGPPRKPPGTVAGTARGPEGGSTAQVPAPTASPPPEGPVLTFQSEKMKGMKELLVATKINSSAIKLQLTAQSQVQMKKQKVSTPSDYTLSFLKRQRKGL
# Test: qHTS Assay for Inhibitors Targeting the Menin-MLL Interaction in MLL Related Leukemias: Competition With Texas Red Labeled MLL-derived Mutant Peptide
# Conditions: fluorescence polarization; series mostly up to 61.6 µM
# Potency means the concentration at half of the fitted maximal effect; tags describe the fitted curve by direction and shape or compound fluorescence and quenching.
row,Compound,Potency
1,O=C(Cc1ccccc1)Nc1cccc(N2C(=O)C=CC2=O)c1,inactive
2,NNC(=O)c1cc2c(ccc3ccccc32)o1,inactive
3,Cn1c(N)c(S(=O)(=O)NCc2ccccc2Cl)c(=O)n(C)c1=O,"inconclusive: 35.5 µM [inhibitor, single point]"
4,CCOC(=O)c1cc(-c2ccccc2)sc1NC(=O)COC(=O)c1ccc(Cl)c(S(N)(=O)=O)c1,"inconclusive: 11.2 µM [inhibitor, partial curve]"
5,CCOC(=O)c1sc2ncn(CC(=O)NCC3CCCO3)c(=O)c2c1C (stereo not drawn),inactive
6,CCN(CCCNC(=O)c1cc2c(-c3cccc(OC)c3)nn(C)c2s1)Cc1ccccc1,"inconclusive: 3.98 µM [inhibitor, full curve]"
7,COc1ccccc1OCC(=O)Nc1ccc(S(=O)(=O)N2CCCC2)cc1,"inconclusive: 0.708 µM [inhibitor, partial curve, poor fit]"
8,COc1cc(CN(C)CCc2ccccc2)ccc1OCc1ccccc1,"inconclusive: 39.8 µM [inhibitor, single point]"
9,Cc1cc(C(=O)O)ccc1-c1ccc(/C=C2\NC(=O)N(Cc3ccccc3Cl)C2=O)o1,"inconclusive: 0.891 µM [quencher, side channel, partial curve, poor fit]"
10,Cn1cccc1C(=O)OCC(=O)c1cc2ccccc2o1,"inconclusive: 20 µM [quencher, side channel, partial curve]"
11,Nc1nc(SCC(=O)Nc2ccc(Oc3ccccc3)cc2)n[nH]1,"inconclusive: 22.4 µM [quencher, side channel, partial curve]"
12,COC(=O)NCc1cc2cc(Cl)ccc2[nH]1,inactive
13,CCCCN(C)C(=O)c1nc2ccccn2c1CN1CCN(C/C=C/c2ccccc2)CC1,"inconclusive: 10 µM [fluorescent, side channel, partial curve]"
14,O=c1cc(C(F)(F)F)nc(SCc2cccc3ccccc23)[nH]1,"inconclusive: 20 µM [quencher, side channel, partial curve]"
15,CN=c1nc(-c2ccccc2)n(-c2ccccc2)s1,inactive
16,CCNc1nc(-c2cc(C)n(Cc3ccco3)c2C)cs1,inactive
17,COc1ccccc1N(CC(=O)NCCC1=CCCCC1)S(=O)(=O)c1ccccc1,"inconclusive: 10 µM [inhibitor, full curve]"
18,COc1ccccc1CCNC(=O)C1CCN(c2nnc(C)c3c(C)n(-c4ccc(C)cc4)nc23)CC1,"inconclusive: 3.55 µM [fluorescent, side channel, full curve, poor fit]"
19,O=C(N[C@H]1CCC(=O)N([C@H](CSc2ccccc2)Cc2ccccc2)CC1)OCc1ccccc1,"inconclusive: 0.631 µM [inhibitor, full curve, poor fit]"

row,Compound,Potency
1,CN(C)CCOCCOc1ccc(Cl)c2ccccc12,"inconclusive: 15.8 µM [fluorescent, side channel, partial curve]"
2,CC1CCCN(C2(O)C(=O)Nc3ccc(Cl)cc32)C1 (stereo not drawn),inactive
3,CC(=O)Nc1ccc(OC(=O)Oc2ccc(NC(C)=O)cc2)cc1,"inconclusive: 39.8 µM [inhibitor, single point]"
4,N#CCCn1cc(/C=N/NC(N)=S)c(-c2ccc(Br)cc2)n1,"inconclusive: 20 µM [quencher, side channel, single point]"
5,O=C(CSc1nnnn1-c1ccccc1)Nc1nc(-c2ccccc2)ns1,"inconclusive: 31.6 µM [quencher, side channel, single point]"
6,NN/C(=C\[N+](=O)[O-])Nc1ccc(Cl)cc1,"inconclusive: 14.1 µM [quencher, side channel, partial curve]"
7,O=C(Nc1cccc(Br)c1)c1ccc2snnc2c1,"inconclusive: 7.94 µM [quencher, side channel, single point]"
8,O=C(/C=C/c1cccc([N+](=O)[O-])c1)Nc1cccc(NC(=O)c2cccs2)c1,"inconclusive: 10 µM [quencher, side channel, partial curve]"
9,COc1cc(Cl)c(C)cc1NC(=O)CSc1sc2c(O)cc(=O)[nH]c2c1C#N,"inconclusive: 12.6 µM [quencher, side channel, partial curve]"
10,Cc1cc(C)n(-c2nc3c(c(=O)[nH]c(=O)n3C)n2C(C)C)n1,"inconclusive: 2.51 µM [inhibitor, full curve]"
11,O=C(Nc1ccc(S(=O)(=O)Nc2nccs2)cc1)c1nn(-c2ccccc2)ccc1=O,"inconclusive: 25.1 µM [quencher, side channel, partial curve]"
12,O=c1[nH]c2ccc(S(=O)(=O)N3CCC(Cc4ccccc4)CC3)cc2o1,"inconclusive: 28.2 µM [quencher, side channel, single point]"
13,CCN(CC)CCCNC(=O)c1cc2c(-c3cccc(OC)c3)nn(C)c2s1,"inconclusive: 28.2 µM [inhibitor, partial curve]"
14,COc1ccc(NS(=O)(=O)c2cc(NC(=O)CC(=O)c3ccc([N+](=O)[O-])cc3)ccc2C)cc1,"inconclusive: 7.94 µM [quencher, side channel, partial curve]"
15,CCC(=O)Nc1ccc(C(=O)N/N=C/c2c(C)[nH]c3ccccc23)cc1,"inconclusive: 14.1 µM [quencher, side channel, partial curve]"
16,S=C(NCCc1ccccc1)Nc1ccc(Cl)cc1Cl,"inconclusive: 14.1 µM [quencher, side channel, partial curve]"
17,Cc1ccc(C2CC(=O)N3CN(Cc4ccco4)CSC3=C2C#N)cc1 (stereo not drawn),"inconclusive: 35.5 µM [quencher, side channel, single point]"
18,N#Cc1cc([N+](=O)[O-])ccc1N1CCN(c2ccccc2O)CC1,"inconclusive: 25.1 µM [quencher, side channel, partial curve]"
19,O=C(Nc1nc(-c2ccc(S(=O)(=O)N3CCCC3)cc2)cs1)c1cccs1,"inconclusive: 28.2 µM [inhibitor, single point]"

# Source: PubChem BioAssay AID1768 (National Center for Advancing Translational Sciences (NCATS), 2009)
